# Data reported in the supplement of paper PMC3334620.
# Whole data set: some 33,000 sequences, median “E-score (-0.5 to 0.5)” near -0.04, cut for the highest 2% near 0.36. Some of the results follow.
# Molecular target: T1, Hmlalpha2 (UniProt P0CY09)
# T1 sequence: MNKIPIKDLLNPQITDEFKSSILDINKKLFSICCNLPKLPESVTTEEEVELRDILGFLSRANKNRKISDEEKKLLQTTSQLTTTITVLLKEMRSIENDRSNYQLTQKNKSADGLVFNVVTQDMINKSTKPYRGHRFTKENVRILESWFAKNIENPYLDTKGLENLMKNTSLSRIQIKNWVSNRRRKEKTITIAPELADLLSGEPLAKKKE
# Experiment: PBM E-score (8-mer binding enrichment) (E-score (-0.5 to 0.5)); higher = stronger / more preferred TF binding; most listed sequences are background and not binding sites
# Conditions: protein concentration: 200 nM; construct: GST-full length
# In short: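 Yeast transcription factors, full-length or as DNA-binding domains, were expressed with a GST tag using PURExpress in vitro transcription/translation. At about 100-200 nM they were applied to universal all-10-mer Agilent arrays, double-stranded by primer extension on fresh or once-stripped slides. Fluorescent anti-GST detected bound protein, and masliner normalised the scans. E-scores for ungapped eight-base words, pooled with reverse complements, came from the Universal PBM Analysis Suite.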
row,Sequence,PBM E-score
1,CTTGCGGA,-0.198
2,ATGTGTGC,-0.0456
3,CGCAATAA,0.0535
4,GTGGTAAC,0.177
5,AGCGCTTG,-0.156
6,CGTCAAAA,0.162
7,ATATGGAA,-0.163
8,CATAGTCG,0.00552
9,CTGGTAGC,-0.163
10,ACCCTCCG,-0.249
11,AAGAATGC,-0.0342
12,CGTATTGA,0.218
13,ACCGGACG,0.0425
14,AATCGACG,0.144
15,ATATCTTG,0.127
16,GGGCACTA,-0.105
17,ACTATAAA,0.0609
18,CAAGGACA,0.0292
19,AACAACAG,0.108
20,TAAAAATA,0.301
21,CCTCACAA,0.0611
22,AATCTCGT,0.0984
23,AGTTCAGC,-0.175
24,ATGAAGTA,0.029
25,GTCGTCAA,0.043

row,Sequence,PBM E-score
1,CGATTGGA,-0.236
2,GAATATAC,0.00757
3,AGAGTGTC,0.0584
4,GTATAGTA,0.0389
5,AGCACATG,0.27
6,CAGGTCCC,-0.0871
7,ATATGCAT,0.0344
8,CTCAAAGA,-0.00953
9,ACAGAAAG,-0.025
10,GAGACAAA,-0.215
11,CTTAATAA,0.0396
12,AACAGTGC,-0.058
13,GAAATAAC,0.238
14,CACGAGTG,0.0663
15,ACCTTTAC,0.217
16,GGCGGTGA,-0.163
17,TATCAACA,0.365
18,TAACTTAA,0.225
19,CGCGCCCA,-0.105
20,GCAGTCGA,-0.211
21,ACGGCTAA,0.00018
22,ACGTGGCA,0.0943
23,ACCCACGG,-0.232
24,AGGTTGTA,0.298
25,CCGCCTCG,-0.0272

row,Sequence,PBM E-score
1,ACAGGAAC,0.171
2,CGGGCTTC,-0.266
3,GGCGACGA,-0.241
4,TTCATAAA,-0.00038
5,AAATGCGA,0.129
6,ATCTCGGA,-0.115
7,GCATTGTA,0.27
8,GACTTATA,0.0583
9,AGTGTCGA,-0.0564
10,CAATTGTC,-0.166
11,ACACTACG,0.16
12,CGACGACA,-0.0291
13,AGGAGTCA,-0.136
14,ACCACGGC,-0.0977
15,CGTTCGAG,0.133
16,GGAAGAAC,0.138
17,AATGTCGA,0.199
18,ACACCCCA,0.0432
19,CAACAGTG,-0.0459
20,GAATTATA,0.113
21,ACTATGAG,-0.262
22,CGATTGAG,-0.138
23,CTACTACA,0.304
24,GCTGTGAC,-0.148
25,ACGACTAC,-0.0627

row,Sequence,PBM E-score
1,CTATAGGA,-0.053
2,TCTGTTCA,-0.00907
3,ATCCTCCA,-0.166
4,GGAAAGAC,-0.129
5,AGTCCAAG,-0.0149
6,TCTATTAA,0.176
7,ATAAAAGG,-0.104
8,GAAATTTA,0.251
9,AGGACAAC,0.148
10,GCGACCTA,-0.165
11,CCTAAGCG,-0.0694
12,GCTGGTGA,0.0149
13,GCAATACC,0.115
14,CACGAAAC,0.0891
15,GGCAAAAC,-0.106
16,CCGTGCCA,-0.343
17,CCGACGCG,0.0288
18,TAGCAGCA,-0.0647
19,ACATGCTC,0.388
20,ATATAAGC,-0.00391
21,TAATGGGA,-0.0919
22,CCTCCAAC,-0.0472
23,CACAGAAG,-0.0803
24,ACGATATA,0.172
25,TCATCCGA,0.0299

row,Sequence,PBM E-score
1,AGTCTATG,-0.15
2,CTGCGGTC,-0.306
3,TATGACGA,-0.0622
4,ATCAAGCA,-0.0276
5,CCAGTATA,-0.194
6,ATCCATAG,-0.262
7,CCTTAAAA,0.0328
8,GCTCATAC,-0.111
9,ATGAAGAA,0.219
10,GAAAGCCC,-0.225
11,ATACTGGC,-0.149
12,AGAGCCCA,-0.0942
13,GAATTCTC,-0.0305
14,AACGTGGT,0.194
15,GATCCACC,-0.201
16,GGCTGGTA,-0.204
17,AGTTGTGC,-0.0322
18,AGGTGCAG,-0.173
19,CCATCGGG,-0.186
20,CCGATTCC,-0.241
21,AGAGCCGG,-0.222
22,CGGTTCGA,-0.0762
23,TAAGGAAA,-0.00733
24,ATTGTTAC,0.329
25,AGCTTATG,0.0824

row,Sequence,PBM E-score
1,CTGGCAAG,0.00339
2,CAGTAGAG,-0.246
3,ATTATCTC,-0.0567
4,AAAAGACG,0.0426
5,ACAAGTTA,0.204
6,ACGTCTGC,-0.182
7,GGTGCAAC,-0.234
8,GAGTCGGA,-0.27
9,CACGACCG,0.0621
10,AGGACGCG,-0.102
11,ACGCCGAG,-0.0454
12,AGCTCGCG,-0.0274
13,ACAGCAGT,-0.0376
14,ATGTTTCC,0.0968
15,AAACTCAA,0.18
16,CGAAGCGA,-0.131
17,AGAGGGAC,-0.284
18,CGTGGGTC,-0.127
19,GCCAGAGC,-0.328
20,CCCGCCAA,-0.222
21,GGCGCAAA,-0.11
22,AGCCCAAA,0.104
23,CGGGCGGC,-0.304
24,CAATCTCC,-0.222
25,AACCCGAC,0.109

row,Sequence,PBM E-score
1,AAGTGACT,-0.18
2,CCTGGTGA,-0.269
3,ACGAATTA,0.099
4,AGACGGAA,-0.215
5,GAGTATAA,0.169
6,TCCCTAAA,-0.0419
7,AAAGTGAA,-0.00254
8,CTACTCAC,0.0417
9,ATTCGGGC,-0.0522
10,ACTCCACA,0.0494
11,AACGGTTG,0.153
12,CTAGATTC,-0.183
13,ATCGAACA,0.0534
14,CTAACTCA,-0.0262
15,GCGTTCGA,0.159
16,ACATTTTA,0.291
17,CGGATGGC,-0.103
18,GTAATTTA,0.346
19,GCGCGGAC,0.0699
20,ACCTGAAT,0.143
21,CCCAATGC,-0.198
22,CCCTGGTC,-0.299
23,ACCAAAGG,-0.219
24,CGTTTTAA,0.26
25,AGAGTAAG,0.195

row,Sequence,PBM E-score
1,CCGTGCAA,0.119
2,GGATGACC,-0.218
3,AACACTAT,0.231
4,AGTGTCAC,-0.112
5,CTGCTGAA,-0.0106
6,AGGGGTCG,-0.156
7,CTGTCGTC,-0.0495
8,GACCAGCC,-0.265
9,AGCAGCAC,-0.0514
10,TACAACTA,0.182
11,ATGAAACA,0.17
12,ACGTGACA,0.239
13,ACTACTCT,-0.0533
14,GACCGAGC,-0.135
15,ACTGGACA,-0.0919
16,GTCCGTCA,-0.0862
17,AGCGTCTA,-0.0915
18,ACACCGAA,0.058
19,AGAAACCT,-0.132
20,CAGCGTTC,-0.0056
21,GCATGGAA,0.0408
22,AATGTATA,0.315
23,GCTTTATA,-0.105
24,GACCGACA,-0.139
25,GCAATAAC,0.0236

row,Sequence,PBM E-score
1,ATAGTATA,0.0551
2,AATCGTAC,0.102
3,AATAGGAC,0.0121
4,AAAATGGA,0.163
5,CTTCAAAA,0.0667
6,CAGTCAGC,-0.113
7,CATGTACG,0.372
8,GAATCGAA,0.117
9,ACTCAATA,0.211
10,GAGGACGA,-0.108
11,ACACCTCG,-0.0181
12,ATTGCACG,0.255
13,CTCCCTGC,-0.278
14,CTCAGTTA,0.042
15,CCGGTAGC,-0.23
16,AATTAGTA,0.205
17,AGTCTCTA,-0.111
18,CGAAGAAC,0.196
19,CGGTCGAG,-0.201
